# Source: PubChem BioAssay (NCI)
#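 Cultured in 96-well plates, cells were exposed to test compound for 48 hours across five concentrations. The concentration for full growth arrest is given as TGI.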 For part of its entries the source gives two or more results. Only these are listed. The source may hold further records. For some of these results: A record mostly stands for its own series of concentrations, which the source does not state; some values may only mark the edge of a range. For some of these results: Values given together repeat one measurement across runs, samples, wells, individuals or studies. Marks in square brackets tell the records apart. A, B and so on number the origins entry by entry.
# Key:
# Assay in all cases: NCI tumour cell line growth inhibition, 48 h
# SK-MEL-5 melanoma = test system: SK-MEL-5 melanoma
# IGROV1 ovarian = test system: IGROV1 ovarian
# MALME-3M melanoma = test system: MALME-3M melanoma
# OVCAR-3 ovarian = test system: OVCAR-3 ovarian
# A549 NSCLC = test system: A549 NSCLC
# HS 578T breast = test system: HS 578T breast
# HOP-92 NSCLC = test system: HOP-92 NSCLC
# K-562 leukemia = test system: K-562 leukemia
# HCT-116 colon = test system: HCT-116 colon
# PC-3 prostate = test system: PC-3 prostate
# OVCAR-4 ovarian = test system: OVCAR-4 ovarian
# UACC-62 melanoma = test system: UACC-62 melanoma
# NCI-H226 lung = test system: NCI-H226 lung
# SK-MEL-28 melanoma = test system: SK-MEL-28 melanoma
# COLO 205 colon = test system: COLO 205 colon
# SK-MEL-2 melanoma = test system: SK-MEL-2 melanoma
# NCI-H460 lung = test system: NCI-H460 lung
# SNB-19 CNS = test system: SNB-19 CNS
# SK-OV-3 ovarian = test system: SK-OV-3 ovarian
# HL-60(TB) leukemia = test system: HL-60(TB) leukemia
# CCRF-CEM leukemia = test system: CCRF-CEM leukemia
smiles,measurement,setting,value
O=c1cc(-c2cccc(Cl)c2)[nH]c2cc3c(cc12)OCO3,TGI,SK-MEL-5 melanoma,377 nM and 15.8 µM
same,TGI,IGROV1 ovarian,554 nM and > 100 µM
same,TGI,MALME-3M melanoma,553 nM and > 100 µM
CC[C@@H]1C(=O)N(C)c2cnc(Nc3ccc(C(=O)NC4CCC(N5CCN(CC6CC6)CC5)CC4)cc3OC)nc2N1C(C)C (some centres not stated),TGI,OVCAR-3 ovarian,"> 4.29 µM [sample A, mean of 2 tests] and 105 nM [sample B, mean of 2 tests]"
same,TGI,A549 NSCLC,"> 10 µM [sample A, mean of 2 tests] and 989 nM [sample B, mean of 2 tests]"
COc1ccc2c(c1[N+](=O)[O-])CC[C@@H]1[C@@H]2CC[C@]2(C)C(=O)CC[C@@H]12,TGI,HS 578T breast,25 µM and 515 µM
same,TGI,HOP-92 NSCLC,25 µM and 782 µM
same,TGI,K-562 leukemia,25 µM and > 1 mM
same,TGI,HCT-116 colon,22.3 µM and > 1 mM
same,TGI,PC-3 prostate,25 µM and > 1 mM
same,TGI,OVCAR-4 ovarian,25 µM and 688 µM
same,TGI,UACC-62 melanoma,23.7 µM and > 1 mM
same,TGI,NCI-H226 lung,25 µM and > 1 mM
same,TGI,SK-MEL-28 melanoma,22.3 µM and > 1 mM
same,TGI,COLO 205 colon,25 µM and > 1 mM
same,TGI,SK-MEL-2 melanoma,24.3 µM and 784 µM
same,TGI,NCI-H460 lung,25 µM and > 1 mM
same,TGI,SNB-19 CNS,25 µM and > 976 µM
same,TGI,SK-OV-3 ovarian,12.2 µM and > 718 µM
same,TGI,MALME-3M melanoma,21.1 µM and > 1 mM
same,TGI,HL-60(TB) leukemia,25 µM and > 1 mM
same,TGI,CCRF-CEM leukemia,18 µM and > 1 mM
